In PubChem BioAssay AID2546 (National Center for Advancing Translational Sciences (NCATS), 2010):
About 11,000 (3.5%) of roughly 310,000 compounds were called active. The inconclusive results got no clear call from the source; some entries with a clear call stand among them for comparison. Calls come from the whole dose curve; as a rule, active = well fitted inhibition curve with a large enough effect; inconclusive = small, poorly fitted or top-dose-only effect, or effect the other way; inactive = flat fitted curve, though single readings scatter. No potency is given beside an inconclusive call; the fits are too rough.

assay: VP16 counterscreen qHTS for inhibitors of ROR gamma transcriptional activity; conditions: Drosophila S2 Gal4-VP16 UAS-luciferase, luminescence, 20 h; activity, negative = inhibition: at 53.6 µM (top of the series);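 note: Gal4-VP16 expression switched on by copper sulfate through the metallothionein promoter; nearly all actives have a fitted effect of over 50% in size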
% is set by controls: 0 for no effect and ±100 for the full control effect; potency is the fitted concentration of half-maximal effect; tags give direction and shape of the fitted curve.

Row | Compound | activity, negative = inhibition | Potency
1 | COc1ccc(N2CCN(C(=O)C3CC(O)CN3S(=O)(=O)c3ccc([N+](=O)[O-])cc3)CC2)cc1 (stereo unspecified) | inactive: -7.17% | 
2 | CC(=O)c1cc2c(cc1NC(=O)CCn1cccc1)OCO2 |  | inconclusive [inhibitor, single point]
3 | O=C(NCc1nnc2c3ccccc3c(-c3ccccc3)nn12)c1ccc(Cl)cc1 |  | inconclusive [inhibitor, single point]
4 | CN(CC/C=C1/c2ccccc2CSc2ccccc21)CCCO |  | inconclusive [inhibitor, single point]
5 | Cc1ccc(N2C(=O)Nc3ccccc3C2(O)C(=O)N2CCN(c3ccccn3)CC2)cc1C (stereo unspecified) |  | inconclusive [activator, single point]
6 | Cc1ccccc1NC(=O)CCC(=O)N/N=C/c1cc([N+](=O)[O-])ccc1O |  | inconclusive [inhibitor, partial curve]
7 | CCOc1ccc(CNc2ccc3c(c2)nc(C)n3C)cc1 |  | inconclusive [inhibitor, single point]
8 | O=C(NNc1nc2ccccc2s1)Nc1ccc(Cl)c(Cl)c1 |  | inconclusive [inhibitor, partial curve, poor fit]
9 | FC(F)(F)c1ccccc1NC(=S)NN=C1CCCCCC1 |  | inconclusive [inhibitor, single point]
10 | COCCn1c(C)c(C)c2c(NCCc3ccccc3)ncnc21 |  | inconclusive [inhibitor, single point]
11 | CCOc1ccc(-c2cc(C(=O)N/N=C/c3cccnc3)c3ccccc3n2)cc1 |  | inconclusive [inhibitor, partial curve]
12 | NCCc1nnc(SCC(=O)c2ccc(Cl)cc2)o1 | inactive: 6.31% | 
13 | CCN(CC)S(=O)(=O)c1ccc(S(=O)(=O)N2CCCC(C(=O)NC3CC3)C2)cc1 (stereo unspecified) |  | inconclusive [inhibitor, single point]
14 | O=C1CCCCCN1Sc1ccccc1 |  | inconclusive [inhibitor, single point]
15 | Cc1ccccc1NC1=C/C(=N\S(=O)(=O)c2ccc(C(=O)O)cc2)c2ccccc2C1=O |  | inconclusive [inhibitor, single point]
16 | CCC(CC)C(=O)Nc1ccc(Sc2ccc([N+](=O)[O-])cc2)cc1 |  | inconclusive [inhibitor, partial curve, poor fit]
17 | COc1ccc(NS(=O)(=O)c2cccc(C(=O)NNC(=O)c3cc(C)oc3C)c2)cc1 | inactive: -1.01% | 
18 | Cc1ccc(-c2csc(NC(=O)c3ccc(-c4ccccc4)cc3)n2)o1 |  | inconclusive [inhibitor, single point]
19 | CC(=O)Nc1nnc(COc2ccc(Cl)cc2)s1 | inactive: -17.2% | 
20 | CC/C(O)=C(\C#N)c1nnc2n1CCCCC2 |  | inconclusive [inhibitor, single point]
21 | Nc1ncnc(Oc2cccc3cccnc23)c1[N+](=O)[O-] |  | active: 8.91 µM
22 | O=C(/C=C/c1ccccc1)Oc1cccc2cccnc12 |  | active: 4.47 µM
23 | Cc1c(CCC(=O)NCCC(=O)O)c(=O)oc2cc3occ(-c4ccccc4)c3cc12 |  | inconclusive [inhibitor, partial curve]
24 | CCOC(=O)c1c(C)[nH]c(C)c1C(=O)CSc1nnc(N)s1 | inactive: 0.321% | 
25 | c1ccc(C2=Nn3c(nnc3-c3ccco3)SC2)cc1 |  | inconclusive [activator, full curve]
26 | Cc1ccc(-c2cnn(-c3cccc(C(F)(F)F)c3)c2N)cc1 | inactive: -7.58% | 

Row | Compound | activity, negative = inhibition | Potency
27 | CC(C)(C)NC(=S)NC1CC1 |  | inconclusive [inhibitor, single point]
28 | O=C(Nc1ccc(F)cc1)N1CCCCCC1 | inactive: 3.9% | 
29 | COc1ccc(S(=O)(=O)NCc2ccccn2)cc1NC(=O)c1ccccc1F | inactive: -14.5% | 
30 | CCCn1c(SC(C(=O)Nc2cc(C)ccc2OC)c2ccccc2)nc2ccccc2c1=O (stereo unspecified) |  | inconclusive [inhibitor, single point]
31 | CC(C)CN1CN(Cc2ccco2)CNC1=S |  | inconclusive [inhibitor, single point]
32 | CC(Oc1ccc(F)cc1)C(=O)Nc1ccc2ccccc2c1 (stereo unspecified) | inactive: 14.4% | 
33 | O=C(CSc1nnc(-c2ccco2)o1)c1ccc([N+](=O)[O-])cc1 |  | active: 0.891 µM
34 | CC(Sc1ccccc1)C(=O)NN=C1CCCC1 (stereo unspecified) |  | inconclusive [inhibitor, single point]
35 | S=c1[nH]nc(-c2ccco2)n1/N=C/c1ccc(Cl)cc1Cl |  | active: 17.8 µM
36 | Cc1cc(Nc2n[nH]c(N)c2C#N)ccc1F |  | inconclusive [activator, single point]
37 | COc1cc(/C=C2/C(=O)NN(c3cccc(Cl)c3)C2=O)cc(Br)c1O |  | inconclusive [inhibitor, single point]
38 | COc1ccc(CN2CCC(CO)(CCOc3ccccc3)CC2)c(OC)c1C | inactive: 2.93% | 
39 | COc1ccc(/C=C/C(=O)c2cc(Br)ccc(=O)c2O)cc1 |  | inconclusive [inhibitor, single point]
40 | COc1ccc(-n2cc(CNCCCn3ccnc3)c(-c3cccc(F)c3)n2)cc1 |  | active: 31.6 µM
41 | O=C(Nc1ccc2oc(-c3ccccc3)nc2c1)c1ccccc1F |  | inconclusive [activator, partial curve]
42 | CCOc1cccc(/C=N/NC(=S)Nc2ccccc2[N+](=O)[O-])c1O |  | active: 11.2 µM
43 | Nc1nncn1C(=O)c1cc(Br)ccc1Cl |  | inconclusive [inhibitor, single point]
44 | O=C(Nc1ccc(Cl)cc1)N[C@@H]1c2c(ccc3ccccc23)OC[C@@H]1CO |  | inconclusive [inhibitor, single point]
45 | CCc1ccc(NS(=O)(=O)c2cc3c(cc2C)n(C)c(=O)c(=O)n3C)cc1 |  | inconclusive [inhibitor, single point]
46 | Cc1ccc(Oc2ccc3c(c2)C(=O)N(c2cccc4cccnc24)C3=O)cc1 |  | inconclusive [inhibitor, single point]
47 | Cc1ccc(/C(N)=N/OC(=O)c2cccs2)cc1 |  | inconclusive [inhibitor, single point]
48 | O=C(NCc1ccccc1)N1CCN(c2ccc(F)cc2)CC1 | inactive: 4.78% | 
49 | COC(=O)C1=C(C)N(c2ccc(C)c(C)c2)/C(=C/c2ccc(O)cc2)C1=O |  | inconclusive [inhibitor, single point]
50 | CSc1ccc(/C=N/n2c(C3CCCCC3)n[nH]c2=S)cc1 |  | inconclusive [inhibitor, partial curve]
51 | COCOc1ccc(OC)cc1C(=O)/C=C/c1ccc(OC)c(Br)c1 |  | inactive
52 | CC(/C=N/n1c(-c2ccccc2)n[nH]c1=S)=C\c1ccco1 |  | active: 7.08 µM

Row | Compound | activity, negative = inhibition | Potency
53 | CCc1ccc(C(=O)/C=C/Nc2ccc(S(=O)(=O)Nc3onc(C)c3C)cc2)cc1 |  | active: 15.8 µM
54 | CCOC(=O)N1CCN(Cc2nc3cc(NC(=O)c4cccs4)ccc3n2C)CC1 | inactive: 4.89% | 
55 | O=S(=O)(c1ccccc1)c1ncc(C(F)(F)F)cc1Cl |  | active: 15.8 µM
56 | O=C(NCCc1ccccc1)C1CCN(S(=O)(=O)c2cccs2)CC1 |  | inconclusive [inhibitor, single point]
57 | CCCN1CCC(=O)N([C@H](CSc2ccc(C)cc2)Cc2ccccc2)CC1 | inactive: -9.88% | 
58 | CCc1ccc(/C=N/NC(=O)c2cc(-c3ccncc3)nc3ccccc23)s1 |  | active: 5.62 µM
59 | CCOC(=O)c1[nH]cnc1C(=O)Nc1ccccc1 |  | inconclusive [inhibitor, single point]
60 | COc1cccc(NS(=O)(=O)c2ccc3c(c2)CCN3C(C)=O)c1 |  | active: 15.8 µM
61 | COc1ccc(-c2[nH]c(-c3ccc(F)cc3)nc2SCC(=O)NCc2ccco2)cc1OC | inactive: -16.5% | 
62 | O=C(CCl)N(Cc1cccc([N+](=O)[O-])c1)c1cccc(Cl)c1 |  | inconclusive [inhibitor, single point]
63 | O=C(CCc1nc2ccccc2c(=O)[nH]1)OCCOc1ccc(Cl)cc1 | inactive: -1.49% | 
64 | CCc1ccc(Nc2nnc(SCC(=O)N(C)C3CCS(=O)(=O)C3)s2)cc1 (stereo unspecified) |  | inconclusive [inhibitor, single point]
65 | CC1CCc2cc(F)cc3c(O)c(C(=O)NCC4CCCO4)c(=O)n1c23 (stereo unspecified) |  | inconclusive [inhibitor, single point]
66 | O=C(N/N=C/C=C/c1ccccc1)c1ccncc1 |  | active: 7.08 µM
67 | O=C(Nc1nnc(-c2ccc3c(c2)CCCC3)o1)c1ccccc1Cl |  | active: 0.794 µM
68 | CCCCOc1ccc(C(=O)Nc2ccncc2)cc1 |  | active: 7.94 µM
69 | CC1CN(S(=O)(=O)c2ccc(C(=O)Nc3sc4c(c3C(N)=O)CCN(C)C4)cc2)CC(C)O1 (stereo unspecified) | inactive: -2.98% | 
70 | Cc1cc(OC(C)C(=O)Nc2ccncc2)ccc1Cl (stereo unspecified) |  | active: 11.2 µM
71 | CC(C)(C)c1ccc(OCCCC(=O)N2CCOCC2)cc1 |  | active: 11.2 µM
72 | Cc1cccc(CNC(=O)C2CCC(=O)N(C3CC3)C2)c1 (stereo unspecified) | inactive: 0.137% | 
73 | CCN(CC)S(=O)(=O)c1cccc(-c2n[nH]c(=S)n2/N=C/c2ccc(OC(F)F)cc2)c1 |  | active: 12.6 µM
74 | COc1cc(C(O)c2nc3ccccc3n2C)cc(OC)c1OC (stereo unspecified) |  | inconclusive [inhibitor, single point]
75 | O=C(NCCc1ccccc1)c1cccc([N+](=O)[O-])c1 |  | inconclusive [activator, single point]
76 | CSC(=NC#N)N1CCN(c2ccccc2)CC1 |  | inconclusive [activator, single point]
